Here are results for six compounds from the supplement of paper PMC4604168 (melanoma cell lines).

Some of the results follow. Repeats are few or missing, and single values can be far off.
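Note: cell number obtained by counting DAPI-stained nuclei in high-throughput microscope images with image analysis software, screen run in 1,536-well plates.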

In the experiment the test system is UACC62. In words: cell count relative to DMSO control; melanoma cells; higher = more viable cells. The settings on record: library dose: low library concentration; 72 h.
Compound `O=C(Nc1cc(C(F)(F)F)cc(C(F)(F)F)c1)c1cc(Cl)ccc1O` + COCC[n+]1c2c(n(Cc3cnccn3)c1C)C(=O)c1ccccc1C2=O [YM155] (first compound 0.016 µM, partner dose 0.0004 µM) came in with a cell count of 106%.
Next, `O=C(Nc1cc(C(F)(F)F)cc(C(F)(F)F)c1)c1cc(Cl)ccc1O` + O=C(O)c1ccc2c(c1)nc(Nc1cccc(Cl)c1)c1ccncc12 [CX4945] (first compound 0.016 µM, partner dose 0.4 µM): 100%; `O=C(Nc1cc(C(F)(F)F)cc(C(F)(F)F)c1)c1cc(Cl)ccc1O` + CCCCCCCCCCCCCCCCCCOP(=O)([O-])OC1CC[N+](C)(C)CC1 [Perifosine] (first compound 0.016 µM, partner dose 0.4 µM): 89.9%; `O=C(O)c1ccc2c(c1)nc(Nc1cccc(Cl)c1)c1ccncc12` + NC(=O)Nc1cc(-c2cccc(F)c2)sc1C(=O)N[C@H]1CCCNC1 [AZD7762] (first compound 0.4 µM, partner dose 0.02 µM): 106%.
Next, `O=C(Nc1cc(C(F)(F)F)cc(C(F)(F)F)c1)c1cc(Cl)ccc1O` + C#Cc1cccc(Nc2ncnc3cc(OCCOC)c(OCCOC)cc23)c1 [erlotinib] (first compound 0.016 µM, partner dose 0.8 µM): 93.7%; `O=C(O)[C@@H]1[O][Sb](=[O])([O][Sb]2(=[O])[O][C@H]([C@H](O)CO)[C@H](O)[C@H](C(=O)O)[O]2)[O][C@H]([C@H](O)CO)[C@@H]1O` (stereo partly specified) [stibogluconate] + Nc1nc(F)nc2c1ncn2[C@@H]1O[C@H](CO)[C@@H](O)[C@@H]1O [fludarabine] (first compound 2 µM, partner dose 0.2 µM): 81.8%.
